Among all 48,000 compounds or so, about 450 (0.94%) were called active. The shares of active, inactive and inconclusive entries below differ from those in the screen. The call rests on the fitted dose curve; in most records, active means well fitted inhibition curve with a large enough effect; inconclusive means small, poorly fitted or top-dose-only effect; inactive means no such curve, though single readings can be large or run the other way. Potencies of inconclusive entries are doubtful fits and often do not repeat.
experiment: Primary qHTS for Identification of Small Molecule Inhibitors of Huntingtin Promoter Activity; conditions: HEK293 HTT promoter firefly luciferase reporter (activity 0% = vehicle and -100% = no light), 24 h; activity change, negative = inhibition: at 57.5 µM (top of the series); further: nearly all actives have a fitted effect of over 50% in size
Outline: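 HEK293 Fluc reporter, 2,500 cells/well, 24 h pre-culture; cpds up to 57.5 uM final, 24 h 37 degrees C; Dual-Glo, 10 min RT; normalized vehicle = 0%, zero RLU = -100%.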
Potency means the concentration at half of the fitted maximal effect; tags describe the fitted curve by direction and shape.

Activity change, negative = inhibition, inactive:
COc1ccc(-n2ccnc(NCCc3ccc(S(N)(=O)=O)cc3)c2=O)cc1Cl -38.9%
CCCCC(=O)OC1=C(C(=O)c2ccccc2)N(CC)S(=O)(=O)c2ccccc21 -17.6%
C[C@H](N)C(=O)N[C@@H](C)C(=O)NC1[C@H]2CN(c3nc4c(cc3F)c(=O)c(C(=O)O)cn4-c3ccc(F)cc3F)C[C@@H]12 (stereo partly specified) 3.32%
CCOc1ccc(NS(=O)(=O)c2ccc3[nH]cc(C(=O)NCc4ccccc4)c(=O)c3c2)cc1 -4.17%
COc1ccc(NC(=O)C2CCCN(S(=O)(=O)c3cccs3)C2)cc1 (stereo unspecified) -18.7%
CC[C@@]1(O)C[C@H](O[C@H]2C[C@H](N(C)C)[C@H](O[C@H]3C[C@H](O)[C@H](O[C@H]4CCC(=O)[C@H](C)O4)[C@H](C)O3)[C@H](C)O2)c2c(cc3c(c2O)C(=O)c2c(O)cccc2C3=O)[C@@H]1C(=O)OC -1.86%
CN(Cc1ccc(C(C)(C)C)cc1)Cc1cccc2ccccc12 1.69%
CN(C)CCOc1cc(-c2cn[nH]c2)ccc1NC(=O)C1COc2ccccc2O1 (stereo unspecified) -18.9%
Cc1cc(O)c(-c2ccnc3cc(-c4ccccc4)nn23)cc1Cl -3.62%

Potency, inconclusive:
O=C1Cc2cc(S(=O)(=O)Nc3cccc(C(F)(F)F)c3)cc3c2N1CCC3 39.8 µM [inhibitor, single point]
COc1ccc(C(C)C)cc1S(=O)(=O)NCCc1c(C)[nH]c2c(Cl)cccc12 39.8 µM [inhibitor, single point]
C[C@H](NC(=O)OC(C)(C)C)c1nnc(SCc2ccc(Cl)cc2Cl)o1 31.6 µM [inhibitor, single point]
Cc1cc(OC(C)C(=O)N(Cc2ccco2)Cc2ccco2)cc(C)c1Cl (stereo unspecified) 39.8 µM [inhibitor, single point]
O=C(CSc1oc(-c2ccc(F)cc2)nc1S(=O)(=O)c1ccccc1)c1ccc(Cl)cc1 20 µM [inhibitor, partial curve, poor fit]
CC(C)c1ccc(NC(=O)C2CCC(CNS(=O)(=O)c3ccc4c(c3)CCCC(=O)N4)CC2)cc1 (stereo unspecified) 39.8 µM [inhibitor, partial curve, poor fit]
CCOC(=O)c1[nH]c(C)c(CCC(=O)N2CCN(c3ccc(Cl)cc3)CC2)c1C 25.1 µM [inhibitor, single point]
CCc1ccc2nc(N(Cc3cccnc3)C(=O)Cc3ccccc3)sc2c1 39.8 µM [inhibitor, single point]
COc1ccc(Cc2c(C)nn(-c3nc(C)c(C(=O)Nc4cccc(C(C)=O)c4)s3)c2C)cc1 3.98 µM [inhibitor, single point]
CCc1ccccc1N1C(=O)N(Cc2cc(=O)n3ccccc3n2)c2ccccc2S1(=O)=O 39.8 µM [inhibitor, partial curve, poor fit]
COc1ccc(Cn2ccc3nc(C)c(C(=O)Nc4ccc(OC(F)(F)F)cc4)cc3c2=O)cc1 3.98 µM [inhibitor, partial curve, poor fit]
CSc1ccc(CNC(=O)c2cc3cc(S(=O)(=O)N4CCCCC4)ccc3n2C)cc1 20 µM [inhibitor, partial curve, poor fit]
COc1cccc(CNC(=O)C2CCN(S(=O)(=O)N3CCC(C)CC3)CC2)c1 35.5 µM [inhibitor, single point]
CC1CCN(S(=O)(=O)c2ccc3nc(Nc4ccc(C#N)cc4)ccc3c2)CC1 39.8 µM [inhibitor, single point]
COc1ccccc1CNS(=O)(=O)c1ccc(F)c(C(=O)Nc2cc(Cl)ccc2OC)c1 39.8 µM [inhibitor, single point]
COc1cccc2c1Oc1ncccc1N(C(=O)Nc1cccc(Cl)c1)C2 25.1 µM [inhibitor, single point]
CCCCC(=O)OC1=C(C(=O)c2ccccc2)N(C)S(=O)(=O)c2ccccc21 35.5 µM [inhibitor, single point]
Cc1ccc(C)c(NC(=O)Cn2c(=O)ccc3cc(S(=O)(=O)N4CCCC4)ccc32)c1 39.8 µM [inhibitor, single point]
O=C1C2=C(Nc3ccccc3SC2c2ccccc2C(F)(F)F)c2ccccc21 (stereo unspecified) 31.6 µM [inhibitor, partial curve, poor fit]
O=C(NCc1cccs1)c1ccc(CSc2nc3cccnc3n2Cc2ccccc2)cc1 35.5 µM [inhibitor, single point]
Cc1nc(-c2ccc(C)c(S(=O)(=O)N3CCC(C(=O)Nc4ccc(Cl)cc4)CC3)c2)no1 15.8 µM [inhibitor, partial curve, poor fit]
Cc1ccccc1NC(=O)c1ccc(F)c(S(=O)(=O)N(C)C2CCCCC2)c1 31.6 µM [inhibitor, partial curve, poor fit]
COc1cc2c(cc1OC)[C@@H]1C(=O)c3ccc4c(c3O[C@@H]1CO2)C=CC(C)(C)O4 0.0385 µM [inhibitor, full curve, poor fit]
CC1Cc2cc(S(=O)(=O)N(C)c3ccc(Br)cc3)ccc2N1C(=O)C1CC1 (stereo unspecified) 39.8 µM [inhibitor, single point]
CCOc1ccc(CCNC(=O)c2cccc(-n3c(C)nc4cccnc43)c2)cc1 20 µM [inhibitor, partial curve, poor fit]
CCOC(=O)c1nnn(CC(=O)NC(=O)Nc2cccc(CC)c2)c1C(=O)OCC 22.4 µM [inhibitor, partial curve, poor fit]
O=C(COc1ccc(Cl)cc1)NCCc1csc(-c2ccc(F)cc2)n1 28.2 µM [inhibitor, partial curve, poor fit]
Cc1ccc(Cl)cc1N1CCN(C(=O)C2CCN(S(=O)(=O)c3ccc4c(c3)oc(=O)n4C)CC2)CC1 22.4 µM [inhibitor, partial curve, poor fit]
CCOC(=O)N1CCC(NC(=O)c2ccc3c(c2)N(Cc2cc(C)ccc2C)C(=O)c2ccccc2S3=O)CC1 (stereo unspecified) 31.6 µM [inhibitor, single point]
CCC(C)(C)NC(=O)Cn1c(=O)ccc2cc(S(=O)(=O)N3CCC(C)CC3)ccc21 2.51 µM [inhibitor, partial curve]
CC(C)c1cnn2c(NCc3ccccc3)cc(N[C@@H](CO)[C@H](O)CO)nc12 0.544 µM [inhibitor, full curve]
CCOC(=O)c1c(S(=O)(=O)N2CCC(C(=O)Nc3ccc(OCC)cc3)CC2)c(C)n(C)c1C 35.5 µM [inhibitor, partial curve, poor fit]
CCc1ccc(C2c3c(-c4cc(C)ccc4O)n[nH]c3C(=O)N2Cc2cccnc2)cc1 (stereo unspecified) 28.2 µM [inhibitor, single point]
COc1cc(CNc2ccc3[nH]c(=O)[nH]c3c2)cc(Cl)c1OCc1ccccc1F 28.2 µM [inhibitor, single point]
Cc1ccc(-c2nn(CC(=O)Nc3cccc(C(F)(F)F)c3)c(=O)c3ccccc23)cc1 20 µM [inhibitor, partial curve, poor fit]
Cc1cccc(C)c1NC(=O)CSCc1cnn(-c2ccccc2)c1-n1cccc1 31.6 µM [inhibitor, partial curve, poor fit]
COc1ccc(CNC(=O)c2cc(C)nc3c2c(C)nn3-c2cccc(Cl)c2C)cc1 11.2 µM [inhibitor, partial curve, poor fit]
COc1ccc(C)cc1NC(=O)CC(=O)Nc1ccc2nc3n(c(=O)c2c1)CCCCC3 22.4 µM [inhibitor, partial curve, poor fit]
CC(C)CSc1oc(-c2ccco2)nc1S(=O)(=O)c1ccc(Br)cc1 20 µM [inhibitor, partial curve, poor fit]
O=C(NCCc1csc(-c2ccc(F)cc2)n1)c1c(F)cccc1Cl 39.8 µM [inhibitor, partial curve, poor fit]
COc1ccc(Nc2ncc3c(n2)CCN(C(=O)OC(C)(C)C)C3)cc1 39.8 µM [inhibitor, single point]
CCOc1ccccc1C(=O)N(Cc1cccs1)c1ccc(Cl)cc1 22.4 µM [inhibitor, partial curve, poor fit]
COc1ccccc1CNc1ncnc2c1c(-c1ccccc1)cn2-c1cccc(C)c1 28.2 µM [inhibitor, partial curve, poor fit]
Cc1ccc(NC(=O)Cn2c(-c3cncs3)nc3ccccc32)cc1Br 14.1 µM [inhibitor, partial curve]
COc1ccc(Cl)cc1NC(=O)N1CC(=O)Nc2sc3c(c2C1c1ccccc1)CCCC3 (stereo unspecified) 25.1 µM [inhibitor, single point]
O=C(NCCCNc1nc(Nc2cccc(NC(=O)N3CCCC3)c2)ncc1I)c1cccs1 15.3 µM [inhibitor, partial curve]

Potency, active:
Cc1ccc2c(c1)N(C(=O)c1ccc(F)cc1)C(C)(C)CC2(C)c1ccccc1 (stereo unspecified) 28.2 µM
